Test results taken from a collection of fitness landscapes (doi:10.1126/science.1257360).
The other results are listed elsewhere or left out.

B1: PhoQ; a variant is named by its letters at X, in order, P23837 (parent)
chain: MKKLLRLFFPLSLRVRFLLATAAVVLVLSLAYGMVALIGYSVSFDKTTFRLLRGESNLFYTLAKWENNKLHVELPENIDKQSPTMTLIYDENGQLLWAQRDVPWLMKMIQPDWLKSNGFHEIEADVNDTSLLLSGDHSIQQQLQEVREDDDDAEMTHSVAVNVYPATSRMPKLTIVVVDTIPVELKSSYMVWSWFIYVLSANLLLVIPLLWVAAWWSLRPIEALAKEVRELEEHNRELLNPATTRELTSLVRNLNRLLKSERERYDKYRTTLTDLTHSLKTPLXXLQXXLRSLRSEKMSVSDAEPVMLEQISRISQQIGYYLHRASMRGGTLLSRELHPVAPLLDNLTSALNKVYQRKGVNISLDISPEISFVGEQNDFVEVMGNVLDNACKYCLEFVEISARQTDEHLYIVVEDDGPGIPLSKREVIFDRGQRVDTLRPGQGVGLAVAREITEQYEGKIVAGESMLGGARMEVIFGRQHSAPKDE

Variants of: B1
Experiment: enrichment ratio after two sorts for PhoP signalling (ratio (wild type AVST 3.29)); higher = more functional
Conditions: with PhoP (E. coli)

Row | Variant | enrichment ratio
1 | QDVM | ≤ 0.25
2 | AHLA | 1.43
3 | WFRK | ≤ 0.25
4 | EYFS | ≤ 0.25
5 | PFDA | ≤ 0.25
6 | FPTS | ≤ 0.25
7 | SIRW | ≤ 0.25
8 | EPMH | ≤ 0.25
9 | SCEI | ≤ 0.25
10 | MFSF | ≤ 0.25
11 | VSCM | 13.1
12 | SQYC | ≤ 0.25
13 | ATAH | 4.05
14 | MTLY | ≤ 0.25
15 | RCGA | ≤ 0.25
16 | YITA | ≤ 0.25
17 | NGEH | ≤ 0.25
18 | ILVC | ≤ 0.25
19 | GTEP | ≤ 0.25
20 | PQQM | ≤ 0.25
21 | NTVD | ≤ 0.25
22 | WPME | ≤ 0.25
23 | WSKQ | ≤ 0.25
24 | MTCP | ≤ 0.25
25 | VTVI | ≤ 0.25
26 | TARR | 0.314

Row | Variant | enrichment ratio
27 | GESW | ≤ 0.25
28 | GRHS | ≤ 0.25
29 | TYEL | ≤ 0.25
30 | TPRE | ≤ 0.25
31 | LAFH | 0.766
32 | YKSC | ≤ 0.25
33 | DSDM | ≤ 0.25
34 | PQMG | ≤ 0.25
35 | AFKS | ≤ 0.25
36 | QHVK | ≤ 0.25
37 | IPQL | ≤ 0.25
38 | NKEM | ≤ 0.25
39 | IRVW | ≤ 0.25
40 | VGKH | ≤ 0.25
41 | GQSD | ≤ 0.25
42 | IRHQ | ≤ 0.25
43 | WFAF | ≤ 0.25
44 | VAAN | ≤ 0.25
45 | RSMD | ≤ 0.25
46 | FWGR | ≤ 0.25
47 | PCQM | ≤ 0.25
48 | WFDL | ≤ 0.25
49 | SKQV | ≤ 0.25
50 | GSKE | ≤ 0.25
51 | VARC | ≤ 0.25
52 | RASK | ≤ 0.25

Row | Variant | enrichment ratio
53 | LDFC | ≤ 0.25
54 | DHQP | ≤ 0.25
55 | GWCG | ≤ 0.25
56 | IMHD | ≤ 0.25
57 | MCRP | ≤ 0.25
58 | KDLD | ≤ 0.25
59 | LWSV | ≤ 0.25
60 | PVKK | ≤ 0.25
61 | MPIQ | ≤ 0.25
62 | VQLL | 3.45
63 | YPKT | ≤ 0.25
64 | NHQG | ≤ 0.25
65 | ACRE | ≤ 0.25
66 | EHYV | ≤ 0.25
67 | ELSG | ≤ 0.25
68 | PDMY | ≤ 0.25
69 | DNML | ≤ 0.25
70 | VAPT | ≤ 0.25
71 | RWGC | ≤ 0.25
72 | DIFL | ≤ 0.25
73 | EDDT | ≤ 0.25
74 | VVYP | ≤ 0.25
75 | NFQT | ≤ 0.25
76 | KSDN | ≤ 0.25
77 | FGIE | ≤ 0.25
78 | AGFL | 5.03

Row | Variant | enrichment ratio
79 | FEPD | ≤ 0.25
80 | QEWT | 11.3
81 | HDRY | ≤ 0.25
82 | DKVY | ≤ 0.25
83 | TNKM | ≤ 0.25
84 | YGAL | ≤ 0.25
85 | LSMG | ≤ 0.25
86 | MYEK | ≤ 0.25
87 | FCLQ | 6.86
88 | GSYR | ≤ 0.25
89 | IPLE | ≤ 0.25
90 | VECC | 0.344
91 | SCRN | ≤ 0.25
92 | HEFQ | ≤ 0.25
93 | MAGH | 8.79
94 | SYGT | ≤ 0.25
95 | PQWA | ≤ 0.25
96 | ELAT | ≤ 0.25
97 | HHRG | ≤ 0.25
98 | QNKP | ≤ 0.25
99 | ITWT | ≤ 0.25
100 | LPPD | ≤ 0.25
101 | PCWY | ≤ 0.25
102 | DCRC | ≤ 0.25
103 | RGEI | ≤ 0.25
104 | HTIF | ≤ 0.25

Row | Variant | enrichment ratio
105 | YYIC | ≤ 0.25
106 | ATKT | ≤ 0.25
107 | REWD | ≤ 0.25
108 | YYGV | ≤ 0.25
109 | NRMF | ≤ 0.25
110 | QTLH | ≤ 0.25
111 | TGCY | 8.48
112 | NWWN | ≤ 0.25
113 | KIHM | ≤ 0.25
114 | MKFK | ≤ 0.25
115 | EWHS | ≤ 0.25
116 | RTAK | ≤ 0.25
117 | YYAS | ≤ 0.25
118 | NASG | ≤ 0.25
119 | HPWR | ≤ 0.25
120 | VLRR | ≤ 0.25
121 | YRPS | ≤ 0.25
122 | ASKY | ≤ 0.25
123 | RNHI | ≤ 0.25
124 | NLAW | ≤ 0.25
125 | VSTY | ≤ 0.25
126 | GSWW | ≤ 0.25
127 | KDHK | ≤ 0.25
128 | LMRT | ≤ 0.25
129 | NQLE | ≤ 0.25
130 | QDMF | ≤ 0.25

Row | Variant | enrichment ratio
131 | NVLR | ≤ 0.25
132 | PHCC | ≤ 0.25
133 | RCWP | ≤ 0.25
134 | APIE | ≤ 0.25
135 | GVYI | ≤ 0.25
136 | FVVG | ≤ 0.25
137 | NTIY | ≤ 0.25
138 | EACN | ≤ 0.25
139 | EGRI | ≤ 0.25
140 | YEKE | ≤ 0.25
141 | AGWF | ≤ 0.25
142 | QKLM | ≤ 0.25
143 | TTWP | ≤ 0.25
144 | HHSH | ≤ 0.25
145 | NSRW | ≤ 0.25
146 | VWVV | ≤ 0.25
147 | KVIF | ≤ 0.25
148 | PQHA | ≤ 0.25
149 | TKFD | ≤ 0.25
150 | QRAM | ≤ 0.25
151 | STVG | 9.89
152 | IYAR | ≤ 0.25
153 | SDCF | ≤ 0.25
